Results are given in words; binding and its absence hold for the method and conditions named. In cells and extracts the contact can be indirect. Some results given as binding are weak or reduced against the parent protein; the word gives no strength. Tags and fused reporters may be left off the sequences shown. Blank lines part the entries; values can stand above or below the binder they belong to.
Biological target: DDB2_(1–427)-FLAG (human) (UniProt Q92466)
Assay: co-IP; lysates of doubly transfected HEK293T cells probed with anti-FLAG affinity beads; immunoprecipitates analysed by Western blotting with anti-FLAG and anti-GFP antibodies

Protein sequences, listed by entry. Tags and fused reporters are not part of them.
UniProt Q92466: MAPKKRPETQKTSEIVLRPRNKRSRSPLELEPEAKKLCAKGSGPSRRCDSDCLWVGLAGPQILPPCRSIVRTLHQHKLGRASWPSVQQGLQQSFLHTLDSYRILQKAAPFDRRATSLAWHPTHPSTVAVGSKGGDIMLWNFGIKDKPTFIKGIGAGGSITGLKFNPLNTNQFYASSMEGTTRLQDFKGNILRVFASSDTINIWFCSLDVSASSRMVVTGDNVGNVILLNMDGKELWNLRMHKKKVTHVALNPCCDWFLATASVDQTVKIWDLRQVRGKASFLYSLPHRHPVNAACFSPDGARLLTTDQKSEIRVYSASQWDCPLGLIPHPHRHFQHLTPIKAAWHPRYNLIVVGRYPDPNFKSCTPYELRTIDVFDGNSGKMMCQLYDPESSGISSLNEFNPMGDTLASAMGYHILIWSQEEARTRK

binding: binds
B1: XPC_(520–633)-GFP (domain or fragment, UniProt Q01831 520-633)
chain: AEKRSIAGIDQWLEVFCEQEEKWVCVDCVHGVVGQPLTCYKYATKPMTYVVGIDSDGWVRDVTQRYDPVWMTVTRKCRVDAEWWAETLRPYQSPFMDREKKEDLEFQAKHMDQP

binding: binds
B2: XPC_(607–831)-GFP (domain or fragment, UniProt Q01831 607-831)
chain: LRPYQSPFMDREKKEDLEFQAKHMDQPLPTAIGLYKNHPLYALKRHLLKYEAIYPETAAILGYCRGEAVYSRDCVHTLHSRDTWLKKARVVRLGEVPYKMVKGFSNRARKARLAEPQLREENDLGLFGYWQTEEYQPPVAVDGKVPRNEFGNVYLFLPSMMPIGCVQLNLPNLHRVARKLDIDCVQAITGFDFHGGYSHPVTDGYIVCEEFKDVLLTAWENEQAV

Reference: paper PMC3201922
